The source of these data is the supplement of paper PMC6135742.

SMILES strings stand for the structures. Counter-ions that a name gives are not always drawn. ± gives the standard deviation of the averaged measurements. Whole data set: some 2,600 compounds, median “MBP+ mature oligodendrocyte number relative to DMSO vehicle control” near -0.34, cut for the highest 2% near 13. The list shows a part of the results.
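Further: 10 µM single dose with 3-day oligodendrocyte differentiation.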

The experiment relates to jimpy (Plp1 jimpy) mouse iPSC-derived oligodendrocyte progenitor cells. Put plainly: MBP+ mature oligodendrocyte number relative to DMSO vehicle control (SDs above negative control mean); higher = more surviving jimpy oligodendrocytes (rescue). Particulars: 10 µM; 3 days.
On to `NCCCNCCSP(=O)(O)O` [Amifostine], for which the “MBP+ mature oligodendrocyte number” value is -0.433.
`O=c1[nH]c2ccc(Cl)cc2c(N[C@@H]2CN3CCC2CC3)c1-c1nc2ccccc2[nH]1`: the “MBP+ mature oligodendrocyte number” value was under -6.01.
For the compound `NCCc1c[nH]c2ccc(C(N)=O)cc12` [5-Carboxamidotryptamine maleate], the “MBP+ mature oligodendrocyte number” value was -0.125.
As for `C[C@@H]1[C@H](O)[C@@H](C)/C=C/C=C/CC/C=C/C=C/C=C/C=C/[C@H](O[C@H]2O[C@@H](C)[C@H](O)[C@@H](N)[C@H]2O)C[C@@H]2O[C@](O)(C[C@@H](O)[C@H](O)CC[C@@H](O)C[C@@H](O)C[C@@H](O)CC(=O)O[C@H]1C)C[C@H](O)[C@H]2C(=O)O` [Nystatin (Fungicidin)], the “MBP+ mature oligodendrocyte number” value was found to be 7.36.
As to `CC(C)NCC(O)c1ccccc1Cl` (centres undefined) [Clorprenaline HCl], the “MBP+ mature oligodendrocyte number” value turned out to be 2.18.
In the case of `Cc1cc2c(C(C)C)c(O)c(O)c(C=O)c2c(O)c1-c1c(C)cc2c(C(C)C)c(O)c(O)c(C=O)c2c1O` [Gossypol], the “MBP+ mature oligodendrocyte number” value was -1.91 ± 1.8.
For `CCCN1CC[C@@H]2c3cc(O)ccc3CC[C@@H]21` (racemic) [cis(+/-)-8-OH-PBZI hydrobromide] the value was 9.2.
Turning to `O=c1[nH]c2ccccc2n1C1CCN(CCCC(c2ccc(F)cc2)c2ccc(F)cc2)CC1` [Pimozide], the “MBP+ mature oligodendrocyte number” value is under -3.97.
The same measure for `O=c1ccc2[nH]cc(C3=CCNCC3)c2[nH]1`: 2.18; for `C=CCN1CC[C@]23CCCC[C@H]2[C@H]1Cc1ccc(O)cc13` [Levallorphan tartrate]: -1.77; for `CN(C)C(=O)Oc1ccc[n+](C)c1` [Pyridostigmine Bromide]: -0.917.
For the compound `CN(C)C(=O)Oc1ccc[n+](C)c1` [Pyridostigmine bromide], the “MBP+ mature oligodendrocyte number” value was found to be 0.824.
The same measure for `CN1CCN(c2nc3ccccc3nc2Cl)CC1`: -2.59; for `CCN1CC2(OC(=O)c3ccccc3NC(C)=O)CCC(OC)C34C1C(CC23)C1(O)CC(OC)C2CC4C1(O)C2OC` (centres undefined) [Lappaconite HBr]: 0.619.
Take `Cc1ccc2c(c1)C1(CCN(CCc3nc(-c4ccccc4)oc3C)CC1)OC(=O)N2`: the “MBP+ mature oligodendrocyte number” value is -2.6.
Regarding `C[C@@]12C(=O)OC(=O)[C@]1(C)[C@H]1CC[C@@H]2O1` [Cantharidin], the “MBP+ mature oligodendrocyte number” value was -3.3.
Regarding `CCC1(C)CC(=O)NC(=O)C1` [Bemegride], the “MBP+ mature oligodendrocyte number” value is 3.45.
The same measure for `Cc1ccccc1-n1c(Cn2ncc3c(N)ncnc32)nc2cccc(C)c2c1=O`: 1.18; for `COc1cc(OC)c(OC)cc1C=O` [Asaraldehyde]: -0.892; for `NC(CP(=O)(O)O)C(=O)O` (racemic) [(±)-2-Amino-3-phosphonopropionic acid]: -0.000818.
For `NC1CCc2cc(O)c(O)cc2C1` (centres undefined) [6,7-ADTN hydrobromide] the value was -1.54; for `OC(c1ccccc1)(c1ccccc1)C1CCNCC1` [Azacyclonol], -1.56; for `CCCC[N+]1(C)[C@@H]2C[C@@H](OC(=O)[C@H](CO)c3ccccc3)C[C@H]1[C@@H]1O[C@@H]12` (single isomer, unassigned; (-)) [Butylscopolamine Bromide], 3.92.
On to `CCCC[N+]1(C)[C@@H]2C[C@@H](OC(=O)[C@H](CO)c3ccccc3)C[C@H]1[C@@H]1O[C@@H]12` (single isomer, unassigned; (-)) [(-)-Scopolamine,n-Butyl-, bromide], for which the “MBP+ mature oligodendrocyte number” value was -0.925.
In the case of `c1ccc2sc(C3(N4CCCCC4)CCCCC3)cc2c1` [BTCP hydrochloride], the “MBP+ mature oligodendrocyte number” value is -0.865.
With `N#C/C(=C\c1ccc(O)c(O)c1)C(N)=S` [Tyrphostin 47], the “MBP+ mature oligodendrocyte number” value was 1.07.
Turning to `COc1ccc(OC)c(C(O)C(C)N)c1` (centres undefined) [Methoxamine hydrochloride], the “MBP+ mature oligodendrocyte number” value was -0.872.
`Cc1sc2c(c1C)C(c1ccc(Cl)cc1)=N[C@@H](CC(=O)OC(C)(C)C)c1nnc(C)n1-2`: the “MBP+ mature oligodendrocyte number” value is under -6.35.
Consider `C[C@@H]1O[C@@H](O[C@H]2C[C@@H](O)[C@]3(CO)[C@H]4[C@H](O)C[C@]5(C)[C@@H]([C@@H]6COC(=O)C6)CC[C@]5(O)[C@@H]4CC[C@]3(O)C2)[C@H](O)[C@H](O)[C@H]1O` [Dihydroouabain], for which the “MBP+ mature oligodendrocyte number” value was 2.86.
For the compound `CCCN1CCO[C@@H]2c3cc(O)ccc3OC[C@H]21`, the “MBP+ mature oligodendrocyte number” value turned out to be 0.899.
The same measure for `Cc1ccc(-n2nccn2)c(C(=O)N2CCN(c3nc4cc(Cl)ccc4o3)CC[C@H]2C)c1` [Suvorexant (MK-4305)]: 8.26.
The same measure for `CCCCCCCCCCCCCCCC[n+]1ccccc1` [Cetylpyridinium Chloride]: -5.25; for `CC(=O)OCC1=C(C(=O)[O-])N2C(=O)[C@@H](NC(=O)CCC[C@@H](N)C(=O)[O-])[C@H]2SC1.[Zn+2]` [Cephalosporin C zinc salt]: -0.943.
Regarding `CN1C(=O)CCS(=O)(=O)C1c1ccc(Cl)cc1` (centres undefined) [Chlormezanone], the “MBP+ mature oligodendrocyte number” value was -0.269 ± 0.61.
With `c1ccc2c(c1)sc1ccccc12` [Dibenzothiophene], the “MBP+ mature oligodendrocyte number” value worked out at 4.55.
Consider `O=P1(N(CCCl)CCCl)NCCCO1` (centres undefined) [Cyclophosphamide monohydrate], for which the “MBP+ mature oligodendrocyte number” value is -1.53.
For `O=C(O)Cc1cnc[nH]1` [Imidazole-4-acetic acid hydrochloride] the value was -2.27.
Consider `O=C(O)[C@@H]1CCN1` [L-azetidine-2-carboxylic acid], for which the “MBP+ mature oligodendrocyte number” value is -0.865.
Take `COc1ccc2c(c1OC)C(=O)OC2C1c2cc3c(cc2CCN1C)OCO3` (single isomer, unassigned; (+)) [(+)-Hydrastine]: the “MBP+ mature oligodendrocyte number” value was found to be 1.13.
For `O=C1C=CC(=O)C=C1` [p-Benzoquinone] the value was -2.36; for `CC1=NN=C(c2ccc(N)cc2)c2cc3c(cc2C1)OCO3`, 2.44; for `C[C@]12C/C(=C/O)C(=O)C[C@@H]1CC[C@@H]1[C@@H]2CC[C@@]2(C)[C@H]1CC[C@]2(C)O` [Oxymetholone], -0.945.
In the case of `C[C@H]1CNCCc2ccc(Cl)cc21` [Lorcaserin HCl], the “MBP+ mature oligodendrocyte number” value amounted to 5.9.
Turning to `C=C1C[C@@H]2[C@H](CC[C@]3(C)C(=O)CC[C@@H]23)[C@@]2(C)C=CC(=O)C=C12` [Exemestane], the “MBP+ mature oligodendrocyte number” value is -3.47.
For `CC(=O)c1c(O)c(C)c(O)c(Cc2c(O)c3c(c(C(=O)/C=C/c4ccccc4)c2O)OC(C)(C)C=C3)c1O` [Rottlerin], the “MBP+ mature oligodendrocyte number” value is -1.5.
Take `CC(=O)[C@H]1CC[C@H]2[C@@H]3CC[C@H]4C[C@H](O)CC[C@]4(C)[C@H]3C(=O)C[C@]12C` [5alpha-Pregnan-3alpha-ol-11,20-dione]: the “MBP+ mature oligodendrocyte number” value was 0.265.
Consider `c1ccc(C[N+]23CN4CN(CN(C4)C2)C3)cc1` [Roslin 2], for which the “MBP+ mature oligodendrocyte number” value was -1.53.
The same measure for `COc1ccccc1N1CCNCC1` [1-(2-Methoxyphenyl)piperazine hydrochloride]: 0.253; for `CCCN1CCC[C@@H]2Cc3n[nH]cc3C[C@H]21` [(-)-Quinpirole hydrochloride]: -1.21; for `CC(C)c1cccc(C(C)C)c1O` [Propofol]: 0.764.
As for `OCc1cnc[nH]1` [4-Imidazolemethanol hydrochloride], the “MBP+ mature oligodendrocyte number” value stood at 0.607.
For `O=C(O)CC[N+](=O)[O-]` [3-Nitropropionic acid] the value was -1.66.
For `CN1C[C@H](CNC(=O)OCc2ccccc2)C[C@@H]2c3cccc4c3c(cn4C)C[C@H]21` [Metergoline] the value was under -3.97; for `O=[N+]([O-])c1ncc[nH]1` [Azomycin], 2.3.
For the compound `C[C@]12CC[C@H](O)CC1=CC[C@@H]1[C@@H]2CC[C@]2(C)C(=O)CC[C@@H]12` [Dehydroepiandrosterone (DHEA)], the “MBP+ mature oligodendrocyte number” value turned out to be 0.283.
On to `Cc1cc([C@@H]2CCCN2C)on1` [ABT-418 hydrochloride], for which the “MBP+ mature oligodendrocyte number” value is -0.786.
The same measure for `CC[C@@H](CO)NC(=O)[C@@H]1C=C2c3cccc4c3c(cn4C)C[C@H]2N(C)C1` [Methysergide maleate]: -0.559; for `CC(C)C1CNC(C(=O)O)C1CC(=O)O` (centres undefined) [Dihydrokainic acid]: 1.34; for `COc1cc2c(c(OC)c1OC)-c1ccc(OC)c(=O)cc1[C@@H](NC(C)=O)CC2` [Colchicine]: under -3.34.
For `CC(N)C(O)c1ccc(O)c(O)c1` (single isomer, unassigned; (-)) [(-)-alpha-Methylnorepinephrine], the “MBP+ mature oligodendrocyte number” value was -0.387.
Take `C[C@]12CC[C@@H](O)C[C@@H]1CC[C@@H]1[C@@H]2CC[C@]2(C)[C@@H](C(=O)CO)CC[C@@H]12` [3-alpha,21-Dihydroxy-5-alpha-pregnan-20-one]: the “MBP+ mature oligodendrocyte number” value was -0.911.
As for `CCCN(CCC)C1CCc2cccc(O)c2C1` (racemic) [(±)-8-Hydroxy-DPAT hydrobromide], the “MBP+ mature oligodendrocyte number” value was -0.701.
Take `C/C=C(/C)C(=O)O[C@H]1C(C)=C2[C@H]([C@@H]1OC(=O)CCCCCCC)[C@@](C)(OC(C)=O)C[C@H](OC(=O)CCC)[C@@]1(O)[C@H]2OC(=O)[C@@]1(C)O` [Thapsigargin]: the “MBP+ mature oligodendrocyte number” value is under -3.85.
As for `COc1ccc(CC2NCCc3cc(OC)c(OC)cc32)cc1OC` (centres undefined) [Tetrahydropapaverine HCl], the “MBP+ mature oligodendrocyte number” value was found to be 4.03.
As for `c1ccc2c(c1)OCC(C1=NCCN1)O2` (centres undefined) [Idazoxan hydrochloride], the “MBP+ mature oligodendrocyte number” value is -0.402.
Take `CC(C)(C)c1cc(C=C(C#N)C#N)cc(C(C)(C)C)c1O` [Tyrphostin 9]: the “MBP+ mature oligodendrocyte number” value is under -6.01.
For the compound `Cc1cc(C(C#N)c2ccc(Cl)cc2)c(Cl)cc1NC(=O)c1cc(I)cc(I)c1O` (centres undefined) [Closantel Sodium], the “MBP+ mature oligodendrocyte number” value is -0.185.
As to `Cc1cc(C(C#N)c2ccc(Cl)cc2)c(Cl)cc1NC(=O)c1cc(I)cc(I)c1O` (centres undefined) [Closantel], the “MBP+ mature oligodendrocyte number” value was determined as 1.84.
In the case of `O=C(O)c1nn(Cc2ccc(Cl)cc2Cl)c2ccccc12` [Lonidamine], the “MBP+ mature oligodendrocyte number” value was -0.0229 ± 2.1.
Consider `Cc1o[nH]c(=O)c1CC(N)C(=O)O` (racemic) [(±)-AMPA hydrobromide], for which the “MBP+ mature oligodendrocyte number” value came to 1.55.
In the case of `CCC1(C2=NCCN2)Cc2ccccc2O1` (centres undefined) [Efaroxan hydrochloride], the “MBP+ mature oligodendrocyte number” value is -1.22.
Regarding `CC[C@@H](CO)NC(=O)[C@@H]1C=C2c3cccc4[nH]cc(c34)C[C@H]2N(C)C1` [Methylergonovine maleate], the “MBP+ mature oligodendrocyte number” value is -0.519.
On to `CCOC(=O)c1ncn2c1[C@@H]1CCCN1C(=O)c1cc(OC)ccc1-2`, for which the “MBP+ mature oligodendrocyte number” value is -0.245.
As to `C[N+]1(C)[C@@H]2CC(OC(=O)[C@H](CO)c3ccccc3)C[C@H]1[C@@H]1O[C@@H]12` (single isomer, unassigned; (-)) [(-)-Scopolamine methyl nitrate], the “MBP+ mature oligodendrocyte number” value was determined as 0.539.
